The text below walks through data of PubChem BioAssay AID463173 (ICCB-Longwood Screening Facility, Harvard Medical School, 2010).

Screen size: about 52,000 compounds; about 1,700 (3.3%) were called active. Cut-off read from the data, not from the text of the source: active = survival mostly below about 52% (no sharp cut-off); inactive = mostly above about 56%. The list shows a part of the results.

In this assay the test system is Wild type. As to the kind of experiment: growth inhibition of S. aureus wild type versus tarO mutant, primary screen, teichoic acid synthesis inhibitors, RN4220, OD600 (AID 463173). Conditions: S. aureus RN4220 wild type/DeltatarO growth, OD600, 18 h, active compounds read low, screened at 18.75 µg/mL (by protocol).
Turning to `Cc1ccc(NC(=O)CN2CCN(C3CCCCC3)C(=O)C2=O)cc1`, the survival was inactive: 89%.

For `CCc1ccc(Sc2cc(C(=O)NCCCN3CCCC(C)C3)c3ccccc3n2)cc1` (stereo not drawn), the survival was inactive: 71%.

Consider `Cc1ccc(-n2ncc(C(=O)N3CCN(C4CCCCC4)CC3)c2C2CCN(C(=O)OC(C)(C)C)CC2)cc1`, for which the survival was inactive: 84%.

Regarding `O=c1cc(COc2cccc(C(F)(F)F)c2)nc2sc3c(n12)CCCC3`, the survival is inactive: 89%.

For the molecule `CC(C)NC(=O)c1nn(C)c2c1CS(=O)(=O)c1ccccc1-2`, the survival was inactive: 80%.

On to `COC(=O)c1cc(Cl)ccc1NC(=O)Cn1c(C)cc(C)c(C#N)c1=O`, for which the survival was inactive: 93%.

With `COc1ccccc1CNc1nc(-c2ccco2)nn1S(=O)(=O)c1ccc(C)cc1`, the survival is inactive: 88%.

Take `Clc1ccc(CN2CCc3nc(Nc4ccc5c(c4)OCCO5)ncc3C2)cc1`: the survival is inactive: 78%.

Take `CCOc1ccccc1CN(CCc1ccc2c(c1)OCO2)Cc1cc(OC)c(OC)cc1OC`: the survival is inactive: 72%.

As for `CC(=O)Nc1ccc2nc(SCc3ccccc3)sc2c1`, the survival was inactive: 60%.

As to `CC(C)=CCC(C)(C)CNc1ccc(C)cc1`, the survival is inactive: 99%.

For `CCOC(=O)N1CCC(NC(=O)c2cnn(-c3cccc(C)c3)c2C2CCN(C(=O)OC(C)(C)C)CC2)CC1`, the survival was inactive: 72%.

Consider `Cc1ccccc1C(=O)NCc1ccc2c(c1)CCN2C(=O)c1ccccc1`, for which the survival is inactive: 71%.

On to `CCn1c(=O)c2sccc2n2c(CCCC(=O)N3CCN(c4ccccc4OC)CC3)nnc12`, for which the survival is inactive: 98%.

With `CCn1c(SCC(=O)Nc2cccc(Cl)c2)nnc1-c1nonc1NC(C)=O`, the survival was inactive: 98%.

Consider `Cc1ccc(-c2nsc(NC(=O)c3oc4cc(C)c(Cl)cc4c3C)n2)cc1`, for which the survival was inactive: 90%.

As for `COc1ccc(CNC(=O)C(=O)NCC(c2cccs2)S(=O)(=O)c2ccc(C)cc2)cc1` (stereo not drawn), the survival was inactive: 74%.

Take `O=C(c1ccc(F)cc1)N1c2ncnn2C2(CCCCC2)[C@@H]2CCCC[C@@H]21`: the survival was inactive: 82%.

With `COc1cc2[nH]c(=O)n(Cc3ccc(C(=O)N4CCN(c5cccc(C)c5C)CC4)cc3)c(=O)c2cc1OC`, the survival was inactive: 152%.

`CCOC(=O)c1ccc(NC(=O)c2ccc3c(c2)CCN3S(=O)(=O)c2ccc(Cl)cc2)cc1`: the survival was inactive: 99%.

On to `CCN(c1ccccc1)C1SC(=O)N(c2ccccc2)C1=O` (stereo not drawn), for which the survival was inactive: 97%.

`COc1ccc(CNC(=O)c2cc(Nc3ccc(OC)cc3OC)nc3ccccc23)cc1`: the survival is inactive: 86%.

With `Cc1cccc(NS(=O)(=O)c2nnc(NC(=O)C3CCCCC3)s2)c1`, the survival is inactive: 48%.

Turning to `CC(CNC(=O)c1ccc(Cn2c(SCc3ccccc3)nc3cccnc32)cc1)c1ccccc1` (stereo not drawn), the survival was inactive: 69%.

For `COc1ccc(CCNC(=O)Cn2nnc(-c3cccc(C(F)(F)F)c3)n2)cc1OC`, the survival was inactive: 94%.

As to `Cc1ccc(-n2nc(CO)c(C(=O)NCCO)n2)cc1`, the survival is inactive: 86%.

As to `Cc1ccc(C)c(CN2C(=O)c3ccccc3Sc3ccc(C(=O)NCCCOC(C)C)cc32)c1`, the survival was inactive: 68%.

Turning to `CCOc1ccc(NC(=O)c2oc3ccccc3c2NC(=O)Cc2ccc(OC)c(OC)c2)cc1`, the survival was inactive: 72%.

As to `COc1ccc2oc(=O)cc(CN3CCN(C(=O)c4ccccc4)CC3)c2c1`, the survival is inactive: 84%.

For `O=C(Nc1ccc(O)c(-c2nc3ccccc3o2)c1)c1cccs1`, the survival was inactive: 85%.

On to `O=C(O)C1CCC(N2C(=O)C3C4C=CC(C4)C3C2=O)CC1` (stereo not drawn), for which the survival is inactive: 110%.

Turning to `CC(C)c1nn2c(=O)cc(COC(=O)c3ccc(NC(=O)c4ccccc4Cl)cc3)nc2s1`, the survival was inactive: 99%.

For the molecule `O=C(CSc1n[nH]c(-c2ccccc2Cl)n1)N1CCN(c2ccc(F)cc2)CC1`, the survival was inactive: 73%.

For the molecule `O=C1CNC(=O)N1Cc1ccc(F)cc1`, the survival is inactive: 116%.

Take `CCOC(=O)c1ccc(N2C(=O)c3n[nH]c(C)c3C2c2ccc(C(C)C)cc2)cc1` (stereo not drawn): the survival is inactive: 78%.

As for `COc1ccc(C(=O)Nc2nc3ccc(S(=O)(=O)N4CCCC4)cc3s2)cc1`, the survival was inactive: 84%.

Regarding `Cn1cc(S(=O)(=O)N2CCCC2)cc1C(=O)Nc1ccc(C(F)(F)F)cc1`, the survival was inactive: 109%.

For the molecule `O=C(Nc1ccc(NC(=O)c2ccc(Br)cc2)c(Cl)c1)c1ccc(Br)cc1`, the survival was inactive: 74%.

`COc1ccccc1-c1nnc(C2CCN(S(=O)(=O)c3ccccc3)CC2)o1`: the survival was inactive: 81%.

In the case of `COc1ccc(CNc2oc(COc3cccc(C)c3)nc2C#N)cc1`, the survival was inactive: 63%.

Regarding `Cc1cc(C(F)F)n2ncc(C(=O)NCc3ccccc3)c2n1`, the survival was inactive: 108%.

Consider `COc1cccc2cc(-c3nnc(-c4ccc(Cl)cc4)o3)c(=O)oc12`, for which the survival was inactive: 108%.

For `CCc1nn(CC(=O)N2CCN(c3cccc(C(F)(F)F)c3)CC2)c(=O)c2cc3occc3n12`, the survival is inactive: 81%.

As to `COc1cccc(-c2nc(CS(=O)(=O)CC(=O)NCCCN3CCN(C)CC3)c(C)o2)c1`, the survival is inactive: 85%.

As to `CCCCCn1c(=O)[nH]c2cc(C(=O)Nc3ccc(OC)c(OC)c3)ccc2c1=O`, the survival was inactive: 74%.

In the case of `COc1cccc(N2CCN(C(=O)Cn3cnc4onc(-c5ccc(F)cc5)c4c3=O)CC2)c1`, the survival is inactive: 127%.

Take `COc1ccc(C)cc1NC(=O)C1CCCN(S(=O)(=O)c2ccc3c(c2)oc(=O)n3C)C1` (stereo not drawn): the survival is inactive: 89%.

For the molecule `CCOC(CSc1nnc2c3ccccc3n(CC)c2n1)OCC`, the survival is inactive: 102%.

With `Cc1cccc(Cn2c(SCc3ccc(C(=O)NCCc4ccccc4)cc3)nc3cccnc32)c1`, the survival is inactive: 82%.

With `Cc1ccc(SCc2nc(-c3ccc(C(=O)NCc4ccccc4Cl)cc3)oc2C)cc1`, the survival was inactive: 82%.

For the molecule `CC(=O)Nc1cccc(NC(=O)C2(c3cccs3)CCOCC2)c1`, the survival is inactive: 78%.

As to `Cn1c(=O)c(=O)n(C)c2cc(N3CCCC3)c(NC(=O)c3ccc(C(C)(C)C)cc3)cc21`, the survival was inactive: 75%.

Take `COc1cccc(CNC(=O)CN(c2ccc(C(C)C)cc2)S(=O)(=O)c2c(C)n[nH]c2C)c1`: the survival is inactive: 94%.

Take `COc1cccc(-c2nnc3n(CCc4ccccc4)c(=O)c4ccccc4n23)c1O`: the survival is inactive: 87%.

Turning to `CCOC(=O)CC(=O)CSc1nc2ccccc2c(=O)n1CCc1ccccc1`, the survival was inactive: 72%.

With `Cc1ccc(C(=O)CCCn2nnc(-c3ccncc3)n2)cc1C`, the survival was inactive: 92%.

With `CCc1ccc(NC(=O)C2CCN(S(=O)(=O)c3c(C)noc3/C=C/c3cccs3)CC2)cc1`, the survival is inactive: 79%.

Regarding `CC(C)(C)C(=O)N1CCCC(c2nc3c(nnn3Cc3ccc(C(C)(C)C)cc3)c(=O)[nH]2)C1` (stereo not drawn), the survival was active: 50%.

Consider `CCn1cc(C(=O)NCCOC)c(=O)c2cc(S(=O)(=O)N3CCOCC3)ccc21`, for which the survival was inactive: 77%.

With `COc1ccc(S(=O)(=O)N(CCc2ccccc2)CC(=O)Nc2cc(C)ccc2C)cc1`, the survival is inactive: 61%.

On to `Cc1cccc(NC(=O)CSc2cn(CC(=O)N3CCOCC3)c3ccccc23)c1`, for which the survival is inactive: 93%.

For the molecule `O=C(CCC1N=C2c3ccccc3N=C(SCC(=O)Nc3ccccc3F)N2C1=O)NCc1cccs1` (stereo not drawn), the survival is inactive: 85%.

With `CCOC(=O)C1=C(c2ccccc2)Nc2ncnn2C1c1ccc(Cl)cc1` (stereo not drawn), the survival is inactive: 81%.

In the case of `COc1cc(OC)cc(C(=O)Nc2ccc3oc(-c4ccc(Cl)cc4)nc3c2)c1`, the survival is inactive: 90%.

Regarding `O=C(c1cccc(C(F)(F)F)c1)C1CCN(C(=O)N2CCOCC2)CC1`, the survival is inactive: 119%.

For `COc1cc(Cl)c(C)cc1Nc1c2c(nc3ccccc13)CCC2`, the survival was inactive: 81%.

`Cc1nc2ccc(S(=O)(=O)N(CC(=O)Nc3ccc(Cl)cc3)Cc3ccccc3)cc2s1`: the survival is inactive: 49%.

Regarding `CCc1cccc(CC)c1NC(=O)c1c(C)oc2ccc(O)c(CN3CCOCC3)c12`, the survival was inactive: 88%.

`COc1ccc(CNC(=O)c2ccc3c(c2)NC(=O)C(CS(=O)(=O)Cc2ccccc2Cl)N3)cc1` (stereo not drawn): the survival was inactive: 49%.

Regarding `CCOc1ccccc1CNC(=O)CN1C(=O)CCn2nc(-c3cn(C)c4ccccc34)cc21`, the survival was inactive: 87%.

With `O=C(c1ccc2c(c1)N(Cc1cccc(Cl)c1)C(=O)c1ccccc1S2(=O)=O)N1CCC(Cc2ccccc2)CC1`, the survival was inactive: 88%.

Take `CCOC(=O)c1cccc(NS(=O)(=O)c2c(C)nc3sc(C)cn3c2=O)c1`: the survival is inactive: 81%.

Regarding `CCOC(=O)c1cnc(SC2CC(=O)N(c3ccccc3)C2=O)nc1N` (stereo not drawn), the survival is inactive: 105%.

`CC(C)CCOc1ccc(Oc2nc(N(C)C)nc(N(C)C)n2)nn1`: the survival was inactive: 84%.

As to `COc1ccccc1-n1ncc2c(=O)[nH]c(SCC(=O)Nc3cccc(F)c3)nc21`, the survival was inactive: 74%.

On to `COc1ccc2c(CNCc3cccs3)c(C(=O)O)n(Cc3ccc(F)cc3Cl)c2c1`, for which the survival is inactive: 112%.

Turning to `CCOc1ccccc1N(C)C(=O)Cn1cnc2onc(-c3ccc(F)cc3)c2c1=O`, the survival is inactive: 90%.

In the case of `CSc1cccc(N2C(=O)N(CC(=O)NCc3ccccc3Cl)c3ccccc3S2(=O)=O)c1`, the survival is inactive: 131%.

For the molecule `COc1ccc(-c2nn[nH]n2)cc1`, the survival was inactive: 115%.

For the molecule `Cc1ccc(NC(=O)C(Cc2ccccc2)n2cccc2)c(C)c1` (stereo not drawn), the survival was inactive: 81%.

On to `Cc1cc(=O)n2c(C(=O)Nc3ccc(F)c(Cl)c3)c(C(=O)Nc3cccc(C)c3C)sc2n1`, for which the survival is inactive: 94%.

For the molecule `CCOc1ccc(C(=O)c2oc3ccccc3c2NC(=O)c2cc(-c3ccccc3)on2)cc1`, the survival is inactive: 82%.

`CC(C)Oc1cccc(C(=O)Nc2ccc(-c3nc4cc(Cl)cc(Cl)c4o3)cc2)c1`: the survival was inactive: 82%.

In the case of `Cc1cccc2sc(N(Cc3cccnc3)C(=O)Cc3ccccc3)nc12`, the survival is inactive: 81%.

For `Cc1nnc(SCc2ccccc2Cl)c2cc3occc3n12`, the survival is inactive: 77%.

For the molecule `CC(C)c1nnc(NC(=O)c2ccccc2)s1`, the survival was inactive: 111%.

Regarding `CCCCCn1c(=N)c(S(=O)(=O)c2ccccc2)cc2c(=O)n3cccc(C)c3nc21`, the survival is inactive: 68%.

Take `COc1ccc(NC(=O)CN(C)S(=O)(=O)c2ccc3c(c2)CCCN3C(C)=O)cc1Cl`: the survival was inactive: 72%.
